# The other results are listed elsewhere or left out.
# B1: Cohesin-mDCIR (Macaca mulatta) (protein)
# chain: GLDDLDAVRIKVDTVNAKPGDTVRIPVRFSGIPSKGIANCDFVYSYDPNVLEIIEIEPGDIIVDPNPDKSFDTAVYPDRKIIVFLFAEDSGTGAYAITKDGVFATIVAKVKEGAPNGLSVIKFVEVGGFANNDLVEQKTQFFDGGVNVGDTTEPATPTTPVTTPTTTDDLDAASFQKYSQLLEKMTTKDLVHTTLECVKKNMTTEETAWSCCPKNWKPFSSNCYFISTESASWQKSEKDCARMEAHLLVINTREEQDFIFQNLQEESAYFVGLSDPEGQRHWQWVDRTPYNESSTFWHPHEPSDPDERCVVLNFRKTPKRWGWNDVHCIVHQRSVCEMMKIHLHHHHHH
# Columns and labels:
# Assay in all cases: glycan array binding signal (z-score within array); higher = stronger binding
# Settings in all cases: glycan notation: IUPAC condensed, linker removed
# [1] = biological target: Neu5Ac(a2-8)Neu5Ac
# Procedure, shortened: (§1)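 Glycan array data came from 3228 arrays in the Consortium for Functional Glycomics database, and only arrays with an available protein sequence were kept. Glycan names were put into IUPAC-condensed notation, and columns mapping to the same glycan were averaged. The binding signal is a within-array Z-score, averaged across arrays of one protein sequence run at different concentrations or buffers and across linkers. A negative Z-score can be read as non-binding.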
# [2] = biological target: Neu5Ac(a2-8)Neu5Ac(a2-3)Gal(b1-3)GalNAc(b1-4)[Neu5Ac(a2-3)]Gal(b1-4)Glc
# Procedure, shortened: as §1
# [3] = biological target: Neu5Ac(a2-8)Neu5Ac(a2-3)Gal(b1-3)GalNAc(b1-4)[Neu5Ac(a2-8)Neu5Ac(a2-3)]Gal(b1-4)Glc
# Procedure, shortened: as §1
# [4] = biological target: Neu5Ac(a2-8)Neu5Ac(a2-3)Gal(b1-4)Glc
# Procedure, shortened: as §1
# [5] = biological target: Neu5Ac(a2-8)Neu5Ac(a2-3)Gal(b1-4)GlcNAc
# Procedure, shortened: as §1
# [6] = biological target: Neu5Ac(a2-8)Neu5Ac(a2-3)[Gal(b1-3)GalNAc(b1-4)]Gal(b1-4)Glc
# Procedure, shortened: as §1
# [7] = biological target: Neu5Ac(a2-8)Neu5Ac(a2-3)[GalNAc(b1-4)]Gal(b1-4)Glc
# Procedure, shortened: as §1
# [8] = biological target: Neu5Ac(a2-8)Neu5Ac(a2-8)Neu5Ac
# Procedure, shortened: as §1
# [9] = biological target: Neu5Ac(a2-8)Neu5Ac(a2-8)Neu5Ac(a2-3)Gal(b1-4)Glc
# Procedure, shortened: as §1
# [10] = biological target: Neu5Ac(a2-8)Neu5Ac(a2-8)Neu5Ac(a2-3)[Gal(b1-3)GalNAc(b1-4)]Gal(b1-4)Glc
# Procedure, shortened: as §1
# [11] = biological target: Neu5Ac(a2-8)Neu5Ac(a2-8)Neu5Ac(a2-3)[GalNAc(b1-4)]Gal(b1-4)Glc
# Procedure, shortened: as §1
# [12] = biological target: Neu5Ac(a2-8)Neu5Ac(a2-8)Neu5Ac(a2-8)Neu5Ac(a2-3)[GalNAc(b1-4)]Gal(b1-4)Glc
# Procedure, shortened: as §1
# [13] = biological target: Neu5Ac(a2-8)Neu5Gc(a2-3)Gal(b1-4)GlcNAc
# Procedure, shortened: as §1
# [14] = biological target: Neu5Ac(b2-6)Gal(b1-4)GlcNAc
# Procedure, shortened: as §1
# [15] = biological target: Neu5Ac(b2-6)GalNAc
# Procedure, shortened: as §1
# [16] = biological target: Neu5Ac9Ac(a2-3)Gal(b1-3)GlcNAc
# Procedure, shortened: as §1
# [17] = biological target: Neu5Ac9Ac(a2-3)Gal(b1-4)GlcNAc
# Procedure, shortened: as §1
# [18] = biological target: Neu5Ac9Ac(a2-6)Gal(b1-4)GlcNAc
# Procedure, shortened: as §1
# [19] = biological target: Neu5Gc(a2-3)Gal(b1-3)GlcNAc
# Procedure, shortened: as §1
# [20] = biological target: Neu5Gc(a2-3)Gal(b1-3)[Fuc(a1-4)]GlcNAc
# Procedure, shortened: as §1
# [21] = biological target: Neu5Gc(a2-3)Gal(b1-4)Glc
# Procedure, shortened: as §1
# [22] = biological target: Neu5Gc(a2-3)Gal(b1-4)GlcNAc
# Procedure, shortened: as §1
# [23] = biological target: Neu5Gc(a2-3)Gal(b1-4)GlcNAc(b1-3)Gal(b1-4)GlcNAc(b1-2)Man(a1-3)[Neu5Gc(a2-3)Gal(b1-4)GlcNAc(b1-3)Gal(b1-4)GlcNAc(b1-2)Man(a1-6)]Man(b1-4)GlcNAc(b1-4)GlcNAc
# Procedure, shortened: as §1
# [24] = biological target: Neu5Gc(a2-3)Gal(b1-4)[Fuc(a1-3)]GlcNAc
# Procedure, shortened: as §1
# [25] = biological target: Neu5Gc(a2-6)Gal(b1-4)GlcNAc
# Procedure, shortened: as §1
# [26] = biological target: Neu5Gc(a2-6)GalNAc
# Procedure, shortened: as §1
# [27] = biological target: Neu5Gc(a2-8)Neu5Ac(a2-3)Gal(b1-4)GlcNAc
# Procedure, shortened: as §1
# [28] = biological target: Neu5Gc(a2-8)Neu5Gc(a2-3)Gal(b1-4)GlcNAc
# Procedure, shortened: as §1
# [29] = biological target: Neu5Gc(a2-8)Neu5Gc(a2-3)Gal(b1-4)GlcNAc(b1-3)Gal(b1-4)GlcNAc
# Procedure, shortened: as §1
# [30] = biological target: Neu5Gc(a2-8)Neu5Gc(a2-6)Gal(b1-4)GlcNAc
# Procedure, shortened: as §1
# [31] = biological target: Neu5Gc(b2-6)Gal(b1-4)GlcNAc
# Procedure, shortened: as §1
binder,measurement,setting,value
B1,glycan array binding signal (z-score),[1],-0.387
same,glycan array binding signal (z-score),[2],-0.375
same,glycan array binding signal (z-score),[3],-0.345
same,glycan array binding signal (z-score),[4],-0.403
same,glycan array binding signal (z-score),[5],-0.392
same,glycan array binding signal (z-score),[6],-0.324
same,glycan array binding signal (z-score),[7],0.521
same,glycan array binding signal (z-score),[8],-0.433
same,glycan array binding signal (z-score),[9],-0.453
same,glycan array binding signal (z-score),[10],-0.45
same,glycan array binding signal (z-score),[11],0.263
same,glycan array binding signal (z-score),[12],-0.118
same,glycan array binding signal (z-score),[13],-0.358
same,glycan array binding signal (z-score),[14],-0.303
same,glycan array binding signal (z-score),[15],-0.406
same,glycan array binding signal (z-score),[16],1.53
same,glycan array binding signal (z-score),[17],-0.43
same,glycan array binding signal (z-score),[18],0.175
same,glycan array binding signal (z-score),[19],-0.061
same,glycan array binding signal (z-score),[20],0.459
same,glycan array binding signal (z-score),[21],-0.032
same,glycan array binding signal (z-score),[22],-0.21
same,glycan array binding signal (z-score),[23],-0.014
same,glycan array binding signal (z-score),[24],-0.264
same,glycan array binding signal (z-score),[25],-0.109
same,glycan array binding signal (z-score),[26],0.214
same,glycan array binding signal (z-score),[27],-0.271
same,glycan array binding signal (z-score),[28],-0.453
same,glycan array binding signal (z-score),[29],-0.29
same,glycan array binding signal (z-score),[30],-0.402
same,glycan array binding signal (z-score),[31],-0.351

# From the supplement of paper PMC8728848
